# Experimental data as given in US20240277663A1, “PHARMACEUTICAL KITS AND USES THEREOF FOR TREATING COLORECTAL CANCER” (priority 2023, published 2024).
# Like-named read-outs stand apart in the source and are kept apart here. Marks after values point to notes of the source that are not given here.
# Columns and labels:
# [1] = system: MC-38 allograft tumor (MSI-H subtype colorectal carcinoma)
# [2] = system: CT26 allograft tumor (MSS subtype colorectal carcinoma); experiment: CT26 subcutaneous tumor model, HDAC inhibitors with or without RMP1-14; conditions: Day 22 after treatments; ABT-301 100 mg/kg PO; vorinostat 100 mg/kg PO; citarinostat 50 mg/kg IP; RMP1-14 200 μg IP
# [3] = system: CT26 allograft tumor (MSS subtype colorectal carcinoma)
# [4] = system: CT26 allograft tumor (MSS subtype colorectal carcinoma); experiment: CT26 subcutaneous tumor model, multiple doses of ABT-301 with or without avelumab; assay type: in vivo, mouse; conditions: Day 24 after treatments, alone or + avelumab 200 μg, means ± SEM
# Method: Treatments were administered for indicated period (24 days) or until humane endpoints. Ten mice were used in each group. […] Avelumab was prepared with PBS.
# [5] = Day 28 after treatments, ABT-301 100 mg/kg PO, avelumab 100 μg IP, means ± SEM
compound,measurement,setting,value
"O=C(/C=C/c1ccc2c(c1)CCN2S(=O)(=O)c1ccccc1)NO [ABT-301, (E)-N-hydroxy-3-(1-(phenylsulfonyl)-indolin-5-yl)-acrylamide]",Tumor size,"[1]; Day 25 after treatments, ABT-301 100 mg/kg PO, avelumab 200 μg IP, RMP1-14 200 μg IP, means ± SEM",1701.49 ± 321.46 mm^3
same,Median survival,"[1]; MC-38 allograft tumor mice, over the entire study, ABT-301 100 mg/kg PO QD, avelumab or RMP1-14 200 μg IP BIW",27 days
same,TGI (tumor growth inhibition),[2],53.5%
same,Median survival,"[3]; CT26 allograft tumor mice, over the entire study, ABT-301 100 mg/kg PO QD, avelumab 100 μg IP BIW",33.5 days
same,TGI (tumor growth inhibition),[3]; [5],39.34 ± 26.01%
same,Tumor size,[3]; [5],759.26 ± 285.30 mm^3
same,Tumor size,[4]; ABT-301 25 mg/kg,482.19 ± 106.55 mm^3
same,Tumor size,[4]; ABT-301 50 mg/kg,384.31 ± 62.20* mm^3
same,Tumor size,[4]; ABT-301 100 mg/kg,391.42 ± 73.97* mm^3
